Laboratory results as given in PubChem BioAssay AID588453 (National Center for Advancing Translational Sciences (NCATS), 2011).
The campaign covered roughly 390,000 compounds. About 4,000 (1%) were called active. This list was built around the results that the source calls inconclusive (neither active nor inactive); the mix of calls is not that of the screen. Calls follow the shape of the dose curve; as a rule, active = well fitted inhibition curve with a large enough effect; inconclusive = small, poorly fitted or top-dose-only effect; inactive = no such curve, though single readings can be large or run the other way. Potencies of inconclusive entries are doubtful fits and often do not repeat.

Each compound was assayed against Thioredoxin reductase 1, cytoplasmic (Rattus norvegicus) (UniProt O89049) (assay: qHTS Assay for Inhibitors of Mammalian Selenoprotein Thioredoxin Reductase 1 (TrxR1): qHTS). Conditions: recombinant rTrxR1, NADPH fluorescence consumption, selenite substrate; series mostly up to 114 µM; activity change, negative = inhibition: at the top concentration.
How it was run: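 Rat TrxR1 (90 nM in the dispensed reagent) was pre-reduced with 400 uM NADPH for 5 min at room temperature, then incubated with compound for 15 min. After 400 uM selenite was added, NADPH fluorescence (Ex 340/Em 450 nm) was followed for 8 min.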
% is scaled to controls: 0 for no effect and ±100 for the full control effect; potency is read from the fitted curve at half-maximal effect; tags tell the direction and shape of the fitted curve.
Also: nearly all actives have a fitted effect of over 65% in size.

UniProt O89049, sequence (O89049 whole entry, looked up): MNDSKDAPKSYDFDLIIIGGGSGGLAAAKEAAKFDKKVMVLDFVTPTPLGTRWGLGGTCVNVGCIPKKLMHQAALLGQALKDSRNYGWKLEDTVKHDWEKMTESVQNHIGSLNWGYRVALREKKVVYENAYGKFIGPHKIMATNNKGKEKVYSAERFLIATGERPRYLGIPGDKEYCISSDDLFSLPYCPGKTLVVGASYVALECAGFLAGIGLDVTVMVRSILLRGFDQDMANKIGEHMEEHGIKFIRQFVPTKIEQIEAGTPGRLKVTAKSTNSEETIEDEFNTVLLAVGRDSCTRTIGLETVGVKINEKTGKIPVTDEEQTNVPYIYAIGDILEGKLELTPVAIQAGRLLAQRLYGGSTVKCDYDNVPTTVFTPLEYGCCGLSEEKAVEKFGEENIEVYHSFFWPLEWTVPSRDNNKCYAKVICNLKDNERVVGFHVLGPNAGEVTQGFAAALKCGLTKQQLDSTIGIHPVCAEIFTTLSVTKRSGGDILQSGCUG

SMILES	Potency	activity change, negative = inhibition
COc1ccccc1C(=O)NCC(=O)N/N=C/c1cc(Br)ccc1OC(=O)/C=C\c1ccco1	inconclusive: 79.4 µM [inhibitor, partial curve]	–
Cc1ccc(S(=O)(=O)Nc2ccc(OCC(=O)N3CCOCC3)cc2)c(C)c1NS(C)(=O)=O	inconclusive: 89.1 µM [inhibitor, partial curve, poor fit]	–
O=C(Nc1nc(-c2cccc([N+](=O)[O-])c2)cs1)C(c1ccccc1)c1ccccc1	–	inactive: 12.3%
Cc1ccc2nc(Cl)c(CNCc3ccccc3)cc2c1	inconclusive: 50.1 µM [inhibitor, partial curve, poor fit]	–
CCCCn1c(N)c(C(=S)NC(=O)CC(C)(C)C)c(=O)n(C)c1=O	active: 39.8 µM	–
CN(C)c1ncnc2c1NC1=C(S2)C(=NCCCC(=O)O)CC(C)(C)C1	inconclusive: 1.58 µM [inhibitor, partial curve]	–
CC(=O)Oc1ccc(/C=C2\N=C(C3CCCCC3)OC2=O)cc1	inconclusive: 25.1 µM [inhibitor, single point]	–
CC(C)=CC(=O)OCC(=O)Nc1ccccc1Cl	–	inactive: -13.4%
C#CCNCCS(=O)(=O)N(Cc1ccc(Br)cc1)[C@@H](C)C(=O)O	inconclusive: 79.4 µM [inhibitor, single point]	–
Cn1cc(SCC(=O)Nc2ccc3c(c2)OCCO3)c2ccccc21	inconclusive: 39.8 µM [inhibitor, partial curve, poor fit]	–
C=CCSc1nn2c(=O)c3ccccc3nc2s1	–	inactive: 1.81%
Cc1cc2cc3c(cc2nc1SCC(=O)N1CCN(C(=O)c2ccco2)CC1)OCO3	inconclusive: 25.1 µM [inhibitor, single point]	–
COC1CCCN(Cc2c(C(=O)N3CCc4ccccc4C3)nc3ccc(Cl)cn23)C1 (stereo unspecified)	inconclusive: 89.1 µM [inhibitor, single point]	–
CC(C)(C)NC(=O)CCc1nnc(Cc2c[nH]c3ccccc23)o1	inconclusive: 25.1 µM [inhibitor, full curve]	–
COc1ccc(-c2nc(CS(=O)(=O)CC(=O)NCc3ccc4c(c3)OCO4)c(C)o2)cc1	inconclusive: 63.1 µM [inhibitor, partial curve, poor fit]	–
COc1cc(/C=C/c2[nH]c(=O)[nH]c(=O)c2[N+](=O)[O-])cc([N+](=O)[O-])c1O	inconclusive: 20 µM [inhibitor, partial curve, poor fit]	–
CCc1c(C)c(C#N)c2nc3ccccc3n2c1NCC1CCCO1 (stereo unspecified)	inconclusive: 89.1 µM [inhibitor, single point]	–
O=C(NNC(=S)Nc1ccc(Cl)c(Cl)c1)c1cccc([N+](=O)[O-])c1	inconclusive: 6.31 µM [inhibitor, single point]	–
CCc1ccc(-n2cccc2/C=C2/C(=N)N3C(=NC2=O)SN=C3S(C)(=O)=O)cc1	–	inactive: -9.09%
S=c1[nH]nc(-c2ccccn2)n1/N=C/c1cccc(Cl)c1	inconclusive: 50.1 µM [inhibitor, partial curve]	–
O=C(NC(=S)NNC(=O)c1cccs1)c1ccccc1	inconclusive: 31.6 µM [inhibitor, partial curve]	–

SMILES	Potency	activity change, negative = inhibition
COc1ccccc1-n1c(-c2ccc(Cl)cc2)c[nH]c1=S	inconclusive: 50.1 µM [inhibitor, partial curve, poor fit]	–
CCCCCCCCCn1c2c(c(=N)c3c1CCC3)CCC2	–	inactive: 6.34%
COc1cccc(-c2nc(CS(=O)(=O)CC(=O)Nc3cccc(C)c3C)c(C)o2)c1	inconclusive: 20 µM [inhibitor, single point]	–
CCOC(=O)c1cc(C#N)c(SCC(=O)c2cc(C#N)c(SC)nc2C)[nH]c1=O	inconclusive: 28.2 µM [inhibitor, single point]	–
Cc1sc(NC(=O)CS(=O)(=O)c2ccccc2)c(C#N)c1C	–	inactive: 0.516%
O=C(O)C1Nc2c(Cl)cc(Cl)c(Cl)c2C2C=CCC12 (stereo unspecified)	inconclusive: 15.8 µM [inhibitor, full curve]	–
Cc1noc(C)c1CSCC(=O)Nc1nc(-c2ccc(F)c(F)c2)cs1	–	inactive: -0.085% [at 57.1 µM]
CC(=O)c1cnc(N(C)C)s1	–	inactive: -1.97%
COc1ccc(C2CC(=O)C(CS(=O)(=O)c3ccccc3)C(=O)C2)cc1 (stereo unspecified)	–	inactive: -72.6%
C/C(=C\c1cc2ccccc2o1)C1Nc2cccc3cccc(c23)N1	inconclusive: 79.4 µM [inhibitor, single point]	–
CC(=O)O[C@H]1C(=O)[C@@]2(C)[C@H]([C@H](OC(=O)c3ccccc3)[C@]3(O)C[C@H](OC(=O)[C@H](O)C(NC(=O)c4ccccc4)c4ccccc4)C(C)=C1C3(C)C)[C@]1(OC(C)=O)CO[C@@H]1C[C@@H]2O (stereo partly specified)	inconclusive: 70.8 µM [inhibitor, partial curve, poor fit]	–
Cc1cc(C)cc(NC(=O)c2cccc3c2C(=O)N(C2CCCCC2)C3)c1	inconclusive: 89.1 µM [inhibitor, partial curve, poor fit]	–
O=C(OCn1ncc(Br)c(Br)c1=O)c1ccccc1Cl	inconclusive: 2.24 µM [inhibitor, full curve, poor fit]	–
S=C(Nc1cccc(Cl)c1)Nc1ccc2cn[nH]c2c1	inconclusive: 25.1 µM [inhibitor, partial curve]	–
COc1cccc(NC(=O)c2cccc(C(=O)Nc3cccc(OC)c3)n2)c1	inconclusive: 79.4 µM [inhibitor, single point]	–
COc1ccc(NC(=O)c2cnc[nH]2)cc1	inconclusive: 89.1 µM [inhibitor, single point]	–
CCCCCCCNC(=O)C1(CC2CC(c3ccccc3)=NO2)CCNCC1 (stereo unspecified)	inconclusive: 56.2 µM [inhibitor, single point]	–
O=C(O)CSc1cc(NS(=O)(=O)c2ccc(Cl)cc2)c2ccccc2c1O	inconclusive: 28.2 µM [inhibitor, full curve]	–
O=C(O)c1ccc(N/N=C/C2=Cc3ccccc3OC2)cc1	inconclusive: 89.1 µM [inhibitor, single point]	–
O=C(COc1ccccc1)Nc1cccc(-c2cn3cccnc3n2)c1	inconclusive: 89.1 µM [inhibitor, single point]	–
